From PMC2990700
Results are given in words; binding and its absence hold for the method and conditions named. In cells and extracts the contact can be indirect. Some binding calls cover weakened binding; strength is not graded here. For some of these results: Sequences can lack the tags named with a protein.

Protein sequences, listed by entry. Tags and fused reporters are not part of them. Lines headed by an entry give the natural chain unless they say otherwise; changes in a name come on top. Chains listed by the source or under a name are the forms on record and can include a tag or linker.
UniProt Q9DCH4: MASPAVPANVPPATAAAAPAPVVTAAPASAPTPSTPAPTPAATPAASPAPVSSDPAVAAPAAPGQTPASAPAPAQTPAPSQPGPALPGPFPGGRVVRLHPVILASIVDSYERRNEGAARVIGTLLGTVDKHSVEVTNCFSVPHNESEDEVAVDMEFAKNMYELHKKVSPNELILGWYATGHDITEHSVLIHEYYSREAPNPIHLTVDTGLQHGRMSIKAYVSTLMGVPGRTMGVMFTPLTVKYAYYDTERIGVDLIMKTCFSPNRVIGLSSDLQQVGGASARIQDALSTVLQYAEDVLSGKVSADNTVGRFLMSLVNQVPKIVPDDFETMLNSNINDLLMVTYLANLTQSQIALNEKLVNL
S-tagged murine eIF3f active site mutant (HDI to AAA; stable MEF line) (Q9DCH4, form named): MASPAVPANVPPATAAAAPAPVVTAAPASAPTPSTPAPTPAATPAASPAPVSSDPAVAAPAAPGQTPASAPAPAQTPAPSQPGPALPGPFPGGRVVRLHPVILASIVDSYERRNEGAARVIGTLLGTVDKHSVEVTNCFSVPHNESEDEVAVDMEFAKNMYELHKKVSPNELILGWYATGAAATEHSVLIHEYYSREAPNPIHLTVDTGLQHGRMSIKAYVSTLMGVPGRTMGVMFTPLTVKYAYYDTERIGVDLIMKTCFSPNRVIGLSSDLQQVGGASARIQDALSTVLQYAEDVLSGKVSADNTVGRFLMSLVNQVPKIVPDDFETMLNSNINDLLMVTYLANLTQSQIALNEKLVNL

T1: VSV-tagged Deltex1 (VSV-DTX) (UniProt Q86Y01)
T1 sequence: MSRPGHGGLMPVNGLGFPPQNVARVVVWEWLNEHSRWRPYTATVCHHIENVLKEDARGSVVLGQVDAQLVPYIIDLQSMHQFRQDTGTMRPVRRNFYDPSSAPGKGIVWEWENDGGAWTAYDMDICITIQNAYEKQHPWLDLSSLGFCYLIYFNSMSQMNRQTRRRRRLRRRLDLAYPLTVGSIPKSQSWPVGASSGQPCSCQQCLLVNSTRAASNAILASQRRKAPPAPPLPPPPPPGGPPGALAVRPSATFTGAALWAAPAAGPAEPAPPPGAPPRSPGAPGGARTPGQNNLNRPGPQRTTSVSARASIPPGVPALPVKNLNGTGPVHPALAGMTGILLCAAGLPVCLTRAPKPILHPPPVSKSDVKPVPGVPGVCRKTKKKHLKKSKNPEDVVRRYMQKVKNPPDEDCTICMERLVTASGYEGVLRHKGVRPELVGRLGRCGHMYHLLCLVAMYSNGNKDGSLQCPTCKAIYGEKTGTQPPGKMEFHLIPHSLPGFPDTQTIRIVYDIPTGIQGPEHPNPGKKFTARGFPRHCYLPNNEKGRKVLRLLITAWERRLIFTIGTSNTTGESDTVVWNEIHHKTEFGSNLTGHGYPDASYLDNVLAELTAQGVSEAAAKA


Assays:
[1] = target: T1, VSV-tagged Deltex1 (VSV-DTX); test: co-IP; HEK293T cotransfected with eIF3f forms and VSV-DTX; IP with anti-VSV, precipitates eluted with VSV peptide; Western blot
[2] = target: S-tagged murine eIF3f active site mutant (HDI to AAA; stable MEF line) (mouse) (UniProt Q9DCH4); test: co-IP; stable MEF lines with low amounts of VSV-DTX and S-tagged eIF3f; IP with S-tag antibody, Laemmli-eluted; Western blot

| Molecule | binding [1] | binding [2] |
| --- | --- | --- |
| Flag-tagged murine eIF3f (91–361) (from UniProt Q9DCH4 91-361) (domain or fragment) | binds | – |
| Flag-tagged murine eIF3f (188–361) (from UniProt Q9DCH4 188-361) (domain or fragment) | binds | – |
| HA-tagged murine eIF3f (1–192) (from UniProt Q9DCH4 1-192) (domain or fragment) | binds | – |
| VSV-DTX (stable MEF line) (protein, UniProt Q86Y01 1-620) MSRPGHGGLMPVNGLGFPPQNVARVVVWEWLNEHSRWRPYTATVCHHIENVLKEDARGSVVLGQVDAQLVPYIIDLQSMHQFRQDTGTMRPVRRNFYDPSSAPGKGIVWEWENDGGAWTAYDMDICITIQNAYEKQHPWLDLSSLGFCYLIYFNSMSQMNRQTRRRRRLRRRLDLAYPLTVGSIPKSQSWPVGASSGQPCSCQQCLLVNSTRAASNAILASQRRKAPPAPPLPPPPPPGGPPGALAVRPSATFTGAALWAAPAAGPAEPAPPPGAPPRSPGAPGGARTPGQNNLNRPGPQRTTSVSARASIPPGVPALPVKNLNGTGPVHPALAGMTGILLCAAGLPVCLTRAPKPILHPPPVSKSDVKPVPGVPGVCRKTKKKHLKKSKNPEDVVRRYMQKVKNPPDEDCTICMERLVTASGYEGVLRHKGVRPELVGRLGRCGHMYHLLCLVAMYSNGNKDGSLQCPTCKAIYGEKTGTQPPGKMEFHLIPHSLPGFPDTQTIRIVYDIPTGIQGPEHPNPGKKFTARGFPRHCYLPNNEKGRKVLRLLITAWERRLIFTIGTSNTTGESDTVVWNEIHHKTEFGSNLTGHGYPDASYLDNVLAELTAQGVSEAAAKA | – | binds |
